Laboratory results as given in patent publication EP4501942A1, “PEPTIDOMIMETICS WITH ANTIVIRAL ACTIVITY” (priority 2023, dated 2025).

The compounds below were run on hepatitis C virus (assay: microbe, parasite or virus in culture).
From the text: To further characterize the antiviral spectrum of the compounds, we tested their ability to interfere with hepatitis C virus infection, using a trans-complemented infectious particle reporter system (HCVtcp), which mimics a single cycle infection experiment and enables evaluating overall infection efficiency using a luciferase readout (10.1128/JVI.00118-08). Glecaprevir, a clinically approved HCV NS3/4A protease inhibitor was used as control to testify for the ability of the assay to reveal viral protease inhibitors.

| SMILES | EC50 [µM] | EC90 [µM] |
| --- | --- | --- |
| CC(C)[C@H](NC(=O)OC(C)(C)C)C(=O)N1C[C@@H](C)[C@@]1(Cc1ccccc1)C(=O)N[C@H](C#N)C[C@@H]1CCNC1=O [Example 6] | > 50 | > 50 |
| C[C@@H]1CN(C(=O)[C@@H](NC(=O)OC(C)(C)C)C(C)(C)C)[C@]1(Cc1ccccc1)C(=O)N[C@H](C#N)C[C@@H]1CCNC1=O [Example 14] | > 50 | > 50 |
| CCCC[C@@H](C#N)NC(=O)[C@]1(CC(C)C)[C@H](C)CN1C(=O)[C@@H](NC(=O)NC(C)(C)C)C(C)(C)C [Example 25, ^tBuNHCO-L-Tbg-(αS,β'R)-Azl-NH-[(1S)-1-cyano]pentane] | 42 | > 50 |
| C[C@@H]1CN(C(=O)[C@@H](NC(=O)OC(C)(C)C)C(C)(C)C)[C@]1(Cc1ccccc1)C(=O)N[C@H](C=O)C[C@@H]1CCNC1=O [Example 29, Boc-L-Tbg-(αS,β'R')-Azf-L-Ala(3S-2-oxopyrrolidin-3-yl)-H] | > 50 | > 50 |
| CCCC[C@@H](C#N)NC(=O)[C@]1(CC(C)C)[C@H](C)CN1C(=O)[C@@H](NC(=O)OC(C)(C)C)C(C)(C)C [Example 34, Boc-L-Tbg-(aS,β'R)-Azl-NH-[(1S)-1-cyano]pentane] | 45 | > 50 |
| CC(C)[C@H](NC(=O)OC(C)(C)C)C(=O)N1C[C@@H](C)[C@@]1(CC1CCCCC1)C(=O)N[C@H](C#N)C[C@@H]1CCNC1=O [Example 36] | 42 | > 50 |
| CC(C)(C)[C@@H]1NC(=O)O[C@@H]2CCC[C@H]2OC/C=C/C(F)(F)c2nc3ccccc3nc2O[C@@H]2C[C@@H](C(=O)N[C@]3(C(=O)NS(=O)(=O)C4(C)CC4)C[C@H]3C(F)F)N(C2)C1=O [Glecaprevir, reference compound] | < 0.06 | < 0.06 |
